Test results from PubChem BioAssay AID686979 (National Center for Advancing Translational Sciences (NCATS), 2013).
The whole screen tested about 420,000 compounds, of which about 50,000 (12%) were called active. The shares of active, inactive and inconclusive entries below differ from those in the screen. The call rests on the fitted dose curve; in most records, active means well fitted inhibition curve with a large enough effect; inconclusive means small, poorly fitted or top-dose-only effect; inactive means flat fitted curve, though single readings scatter. No potency is given beside an inconclusive call; the fits are too rough.

Experiment: qHTS for Inhibitors of human tyrosyl-DNA phosphodiesterase 1 (TDP1): qHTS in cells in presence of CPT; further: nearly all actives have a fitted effect of over 55% in size
Settings: chicken DT40 Tdp1-/-;hTDP1 cells + 20 nM CPT, ATP luminescence, 48 h; activity change, negative = growth inhibition: at 46.2 µM (top of the series) unless noted
Summary of the method: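 Chicken DT40 Tdp1-/- cells complemented with human TDP1, 400 cells/well, exposed to compounds plus 20 nM camptothecin for at least 48 h at 37 C; viability read as ATP content by CellTiter-Glo luminescence.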
On the % scale 0 is the no-effect control and ±100 the full control effect; potency means the concentration at half of the fitted maximal effect; tags describe the fitted curve by direction and shape.

Row | Compound | activity change, negative = growth inhibition | Potency
1 | CCCNCC1COc2ccccc2O1 (stereo unspecified) | inactive: -2.69% | –
2 | CCOC(=O)C1(C)C=C(Nc2cccc(C(=O)O)c2)C(=O)N1c1cccc(C(=O)O)c1 (stereo unspecified) | inactive: 5.36% | –
3 | CC1=NN(C(=O)c2csc(C(C)C)c2)C(O)(C(F)(F)F)C1 (stereo unspecified) | – | active: 0.731 µM
4 | COc1ccc(S(=O)(=O)NC(=O)C2(C)CCN2C(=O)Cc2ccccc2Cl)cc1 (stereo unspecified) | inactive: -12.2% | –
5 | COc1ccc(OC)c(CNC(=O)Cc2ccc(NC(=O)N3CCSc4ncccc43)cc2)c1 | – | inconclusive [inhibitor, single point]
6 | Cc1ccc(Cl)cc1N1CCN(C(=O)C2(S(=O)(=O)c3ccc(Cl)cc3)CC2)CC1 | – | inconclusive [inhibitor, single point]
7 | COc1cc2c(cc1OC)C(COc1ccccc1OC)N(C(=O)COc1ccc(Cl)cc1)CC2 (stereo unspecified) | – | active: 18.4 µM
8 | O=C(NCc1ccccc1C(F)(F)F)C1CC(c2cc(C(F)(F)F)cc(C(F)(F)F)c2)=NO1 (stereo unspecified) | – | inconclusive [inhibitor, single point]
9 | Clc1ccc(/C=N/Nc2ncnc3ccccc23)cc1Cl | – | active: 20.6 µM
10 | CCOC(=O)c1c(NC(=O)CSc2nc3ccccc3o2)sc(C)c1C | – | inconclusive [inhibitor, single point]
11 | COCCCNC(=O)C[C@@H]1C[C@@]2(C(=O)OC)CCCCC=C2N(Cc2ccc(Cl)cc2Cl)C1=O | – | inconclusive [inhibitor, single point]
12 | COc1ccccc1C1CC(c2cccc(NS(C)(=O)=O)c2)=NN1S(=O)(=O)c1ccccc1 (stereo unspecified) | inactive: -5.13% | –
13 | O=C(/C=C/c1ccc(O)c(O)c1)c1ccc(S(=O)(=O)N2CCCCCC2)cc1 | – | active: 4.61 µM
14 | Cc1cc(C)n(CCc2nc3c4ccccc4nc(N4CCN(c5ccccc5)CC4)n3n2)n1 | – | active: 2.91 µM
15 | O=C(O)CSCC(=O)N(c1ccccc1)c1ccccc1 | inactive: 3.85% | –
16 | O=C(c1ccco1)N1CCN(C(=O)c2ccc(COc3ccc4c(c3)CCC4)o2)CC1 | – | inconclusive [inhibitor, partial curve]
17 | Cc1ccc(C(=O)CCS(=O)(=O)c2ccc(Cl)cc2)cc1 | – | active: 2.91 µM
18 | CCCc1nc2c(=O)n(C)c(=O)nc-2n(C)n1 | – | active: 1.64 µM
19 | Cc1cc(=O)n2c3c(c4c(cc13)c(CN(C)C)cc(=O)n4C)OC2 | – | active: 8.2 µM
20 | COc1ccc(OC)c(NC(=O)CN(C)CCOc2ccc(Br)cc2)c1 | – | inconclusive [inhibitor, single point]
21 | CC(=O)Nc1ccc(S(=O)(=O)N(C)C2CCN(C)CC2)cc1 | inactive: 16.7% | –
22 | Cc1cc(C)c(C(=O)/C=C/c2cccs2)c(=O)[nH]1 | – | inconclusive [inhibitor, single point]
23 | CCN(CC)C(=O)c1cccc(-c2csc(C(O)c3ccc(F)cc3)n2)c1 (stereo unspecified) | – | active: 14.6 µM

Row | Compound | activity change, negative = growth inhibition | Potency
24 | CCCN(CCC)C(=O)c1cn(C)c2ccc(S(=O)(=O)N3CCCC3)cc2c1=O | inactive: 25.5% | –
25 | Cc1ccccc1-n1nnnc1SCC(=O)Nc1ccc(N2CCN(C)CC2)cc1 | – | inconclusive [inhibitor, single point]
26 | COC(=O)[C@@]1(Cc2ccc(F)cc2)[C@@H]2[C@@H](CC(=O)[C@H]2CC(=O)C(=O)N(C)C)CN1C(=O)c1ccccc1 | – | inconclusive [inhibitor, single point]
27 | CCC(C(=O)N1CCOCC1)n1nc(C)c2sc3ccccc3c2c1=O (stereo unspecified) | inactive: 1.73% | –
28 | COc1ccc(NC2=NC(=S)N(c3ccccc3C)C23CCCCC3)cc1 | – | active: 23.1 µM
29 | CCCCCCNc1ccc(C(=O)OCC)cc1 | – | inconclusive [inhibitor, single point]
30 | COc1cccc(CNC(=O)C2CCCCN2S(=O)(=O)c2ccc(F)cc2)c1 (stereo unspecified) | – | inconclusive [inhibitor, single point]
31 | c1csc(-c2nnc(-c3ccc(N4CCOCC4)cc3)o2)c1 | – | inconclusive [inhibitor, single point]
32 | CC1Cc2cc(S(=O)(=O)NCCC(=O)N(C)Cc3ccccc3)ccc2N1C(=O)C1CC1 (stereo unspecified) | – | inconclusive [inhibitor, single point]
33 | Cc1cccc(-n2c(O)c(C=Nc3cc(O)ccc3C)c3ccccc3c2=O)n1 | – | active: 20.6 µM
34 | Cc1ccc(CNc2cnn(C34CC5CC(CC(C5)C3)C4)c(=O)c2Cl)cc1 | – | inconclusive [inhibitor, single point]
35 | O=C(c1ccc2c(c1)N(Cc1cccc(F)c1)C(=O)c1ccccc1S2)N1CCOCC1 | – | inconclusive [inhibitor, single point]
36 | COc1ccc(N2CCN(CCNS(=O)(=O)c3cccc4nsnc34)CC2)cc1 | – | inconclusive [inhibitor, single point]
37 | CC(C)n1c(N2CCN(CC(=O)NCc3cccs3)CC2)nc2ccccc21 | – | inconclusive [inhibitor, single point]
38 | O=C(c1cc(S(=O)(=O)N2CCOCC2)ccc1Cl)N1CCOCC1 | inactive: 11% | –
39 | CC1=NNC(=O)/C1=C\c1cn(-c2ccccc2)nc1-c1ccc(F)cc1 | – | active: 3.66 µM
40 | O=C(NC1CC1)C1=C[C@H](c2csc3ccccc23)C[C@H](OCCCCO)O1 | inactive: -17.6% | –
41 | CCN(CC)S(=O)(=O)N1CCC(C(=O)NC2CCCc3ccccc32)CC1 (stereo unspecified) | – | inconclusive [inhibitor, partial curve]
42 | CCN(C(=O)c1cc2c(=O)n3cccc(C)c3nc2n1CCCOC)C1CCCCC1 | – | active: 20.6 µM
43 | CCn1cc(C(=O)NC(=S)Nc2ccccc2Br)cn1 | – | inconclusive [inhibitor, single point]
44 | OC(c1ccccc1)(c1ccccc1)C1CCN(CCCOc2ccc(F)cc2)CC1 | – | inconclusive [inhibitor, single point]
45 | O=C(COC(=O)C1CCCCC1)Nc1cc([N+](=O)[O-])ccc1F | – | inconclusive [inhibitor, single point]
46 | CCOc1ccc(-c2nnc(NC(=O)CCCOc3cccc(C)c3)o2)cc1 | – | inconclusive [inhibitor, single point]
